Experimental findings from PMC10039029 are described below.

Sequences of proteins named here, by UniProt entry; tags and fusion partners are left off.
UniProt Q7TSC1: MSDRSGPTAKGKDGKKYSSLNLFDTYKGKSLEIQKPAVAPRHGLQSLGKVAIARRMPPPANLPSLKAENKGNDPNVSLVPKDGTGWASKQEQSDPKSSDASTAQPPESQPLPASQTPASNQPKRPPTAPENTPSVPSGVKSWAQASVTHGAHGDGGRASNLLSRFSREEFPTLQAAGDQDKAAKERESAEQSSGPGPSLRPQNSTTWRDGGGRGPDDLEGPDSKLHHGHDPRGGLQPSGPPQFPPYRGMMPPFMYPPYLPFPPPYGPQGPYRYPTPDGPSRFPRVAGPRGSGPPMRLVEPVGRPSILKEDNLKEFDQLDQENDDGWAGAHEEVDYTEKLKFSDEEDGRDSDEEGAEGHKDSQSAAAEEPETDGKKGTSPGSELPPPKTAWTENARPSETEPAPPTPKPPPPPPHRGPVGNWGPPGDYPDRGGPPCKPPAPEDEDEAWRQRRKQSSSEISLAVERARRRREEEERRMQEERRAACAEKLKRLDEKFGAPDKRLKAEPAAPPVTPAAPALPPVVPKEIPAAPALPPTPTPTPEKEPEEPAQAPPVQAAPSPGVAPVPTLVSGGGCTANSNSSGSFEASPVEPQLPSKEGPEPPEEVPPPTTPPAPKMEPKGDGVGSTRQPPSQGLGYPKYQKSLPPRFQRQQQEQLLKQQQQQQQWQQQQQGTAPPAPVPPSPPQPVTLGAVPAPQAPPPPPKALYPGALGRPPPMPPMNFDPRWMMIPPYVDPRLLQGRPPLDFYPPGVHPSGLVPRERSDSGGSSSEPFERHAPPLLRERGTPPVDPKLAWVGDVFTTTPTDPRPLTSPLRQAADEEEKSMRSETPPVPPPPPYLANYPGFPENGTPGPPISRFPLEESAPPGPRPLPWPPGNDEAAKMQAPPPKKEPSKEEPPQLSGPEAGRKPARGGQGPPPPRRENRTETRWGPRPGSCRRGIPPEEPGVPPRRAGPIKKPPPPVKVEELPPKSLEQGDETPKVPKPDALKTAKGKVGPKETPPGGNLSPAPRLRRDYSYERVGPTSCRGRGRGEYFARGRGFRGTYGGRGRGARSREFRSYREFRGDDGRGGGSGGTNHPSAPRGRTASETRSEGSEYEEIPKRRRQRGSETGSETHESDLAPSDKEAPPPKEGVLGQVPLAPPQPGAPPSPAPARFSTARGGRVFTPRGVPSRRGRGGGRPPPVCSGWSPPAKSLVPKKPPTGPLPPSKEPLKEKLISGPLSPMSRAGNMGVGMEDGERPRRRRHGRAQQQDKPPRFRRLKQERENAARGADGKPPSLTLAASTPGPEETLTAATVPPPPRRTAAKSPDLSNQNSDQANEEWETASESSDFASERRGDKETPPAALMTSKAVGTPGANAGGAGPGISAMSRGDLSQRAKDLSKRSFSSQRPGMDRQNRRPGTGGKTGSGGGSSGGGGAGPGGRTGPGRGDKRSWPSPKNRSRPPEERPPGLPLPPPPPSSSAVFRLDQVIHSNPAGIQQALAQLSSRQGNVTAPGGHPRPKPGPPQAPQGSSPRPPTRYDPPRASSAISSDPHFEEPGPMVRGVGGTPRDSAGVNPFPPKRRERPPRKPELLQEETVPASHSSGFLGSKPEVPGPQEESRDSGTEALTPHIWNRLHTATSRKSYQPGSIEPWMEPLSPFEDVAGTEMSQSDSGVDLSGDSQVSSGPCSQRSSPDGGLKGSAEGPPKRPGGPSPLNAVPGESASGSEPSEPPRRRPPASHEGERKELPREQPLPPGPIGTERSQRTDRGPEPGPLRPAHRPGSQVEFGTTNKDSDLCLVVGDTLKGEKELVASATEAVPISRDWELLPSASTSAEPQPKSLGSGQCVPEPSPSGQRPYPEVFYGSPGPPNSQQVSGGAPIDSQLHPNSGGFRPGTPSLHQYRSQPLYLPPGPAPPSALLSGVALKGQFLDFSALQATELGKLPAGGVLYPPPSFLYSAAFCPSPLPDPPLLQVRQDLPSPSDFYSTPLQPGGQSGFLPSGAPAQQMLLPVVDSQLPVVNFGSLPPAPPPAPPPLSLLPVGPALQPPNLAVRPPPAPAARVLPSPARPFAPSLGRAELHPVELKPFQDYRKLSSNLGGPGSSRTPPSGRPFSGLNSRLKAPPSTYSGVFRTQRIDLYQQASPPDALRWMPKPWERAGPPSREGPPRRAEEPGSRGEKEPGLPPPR
UniProt P29341: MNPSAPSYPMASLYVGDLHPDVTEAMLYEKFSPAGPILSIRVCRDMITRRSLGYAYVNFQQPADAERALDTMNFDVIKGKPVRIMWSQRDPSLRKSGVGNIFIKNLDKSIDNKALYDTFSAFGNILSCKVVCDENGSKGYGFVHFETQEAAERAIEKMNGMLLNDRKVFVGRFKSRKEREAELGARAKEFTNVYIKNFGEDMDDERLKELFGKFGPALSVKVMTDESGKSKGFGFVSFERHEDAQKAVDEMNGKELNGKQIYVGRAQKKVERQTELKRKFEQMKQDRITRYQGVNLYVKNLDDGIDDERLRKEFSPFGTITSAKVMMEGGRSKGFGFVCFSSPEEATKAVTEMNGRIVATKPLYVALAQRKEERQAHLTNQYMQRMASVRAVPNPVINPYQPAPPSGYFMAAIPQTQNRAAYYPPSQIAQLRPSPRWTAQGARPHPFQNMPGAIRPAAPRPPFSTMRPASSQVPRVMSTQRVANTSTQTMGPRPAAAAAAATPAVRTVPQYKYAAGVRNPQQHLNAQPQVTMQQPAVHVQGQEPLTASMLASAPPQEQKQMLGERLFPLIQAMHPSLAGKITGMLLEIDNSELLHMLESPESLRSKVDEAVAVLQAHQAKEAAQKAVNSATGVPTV
UniProt Q9JMB7: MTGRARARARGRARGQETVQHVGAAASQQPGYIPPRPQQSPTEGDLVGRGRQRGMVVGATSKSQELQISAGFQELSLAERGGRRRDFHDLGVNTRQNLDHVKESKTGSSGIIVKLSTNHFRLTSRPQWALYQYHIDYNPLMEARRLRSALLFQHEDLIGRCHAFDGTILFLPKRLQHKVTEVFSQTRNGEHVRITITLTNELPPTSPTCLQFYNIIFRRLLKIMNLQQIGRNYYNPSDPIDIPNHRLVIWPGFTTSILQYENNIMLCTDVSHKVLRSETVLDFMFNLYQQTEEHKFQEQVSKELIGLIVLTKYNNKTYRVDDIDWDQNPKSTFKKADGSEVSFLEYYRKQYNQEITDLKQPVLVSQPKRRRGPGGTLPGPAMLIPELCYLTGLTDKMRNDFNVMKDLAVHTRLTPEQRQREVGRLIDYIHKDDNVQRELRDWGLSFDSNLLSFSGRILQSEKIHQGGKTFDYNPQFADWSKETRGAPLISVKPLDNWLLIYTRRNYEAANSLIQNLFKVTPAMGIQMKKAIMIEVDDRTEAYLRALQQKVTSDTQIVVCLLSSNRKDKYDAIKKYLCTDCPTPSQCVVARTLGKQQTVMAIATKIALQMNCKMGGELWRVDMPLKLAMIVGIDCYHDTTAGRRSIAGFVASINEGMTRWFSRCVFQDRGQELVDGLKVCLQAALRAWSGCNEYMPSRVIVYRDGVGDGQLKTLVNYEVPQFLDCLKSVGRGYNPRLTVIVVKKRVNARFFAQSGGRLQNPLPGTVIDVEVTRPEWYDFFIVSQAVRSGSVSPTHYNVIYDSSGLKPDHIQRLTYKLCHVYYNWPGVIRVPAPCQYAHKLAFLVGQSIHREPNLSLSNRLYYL
UniProt Q61584: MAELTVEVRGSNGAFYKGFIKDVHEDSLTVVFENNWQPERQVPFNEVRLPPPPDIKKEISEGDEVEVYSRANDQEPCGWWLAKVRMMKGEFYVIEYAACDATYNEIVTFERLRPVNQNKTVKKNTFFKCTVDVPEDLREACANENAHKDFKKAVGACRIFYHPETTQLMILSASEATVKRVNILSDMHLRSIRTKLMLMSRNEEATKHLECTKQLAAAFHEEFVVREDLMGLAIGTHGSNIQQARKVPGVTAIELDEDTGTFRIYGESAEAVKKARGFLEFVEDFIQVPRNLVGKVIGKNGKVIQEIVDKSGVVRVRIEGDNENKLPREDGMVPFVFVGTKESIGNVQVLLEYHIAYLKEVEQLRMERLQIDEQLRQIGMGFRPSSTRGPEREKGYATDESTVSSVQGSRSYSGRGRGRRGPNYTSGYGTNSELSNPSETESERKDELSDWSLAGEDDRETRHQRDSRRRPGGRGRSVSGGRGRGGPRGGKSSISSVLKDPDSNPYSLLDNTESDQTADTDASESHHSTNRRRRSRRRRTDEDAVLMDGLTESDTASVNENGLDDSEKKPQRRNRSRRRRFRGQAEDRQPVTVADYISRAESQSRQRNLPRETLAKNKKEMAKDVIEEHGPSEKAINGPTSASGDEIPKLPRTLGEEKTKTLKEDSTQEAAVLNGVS
UniProt Q80XI3: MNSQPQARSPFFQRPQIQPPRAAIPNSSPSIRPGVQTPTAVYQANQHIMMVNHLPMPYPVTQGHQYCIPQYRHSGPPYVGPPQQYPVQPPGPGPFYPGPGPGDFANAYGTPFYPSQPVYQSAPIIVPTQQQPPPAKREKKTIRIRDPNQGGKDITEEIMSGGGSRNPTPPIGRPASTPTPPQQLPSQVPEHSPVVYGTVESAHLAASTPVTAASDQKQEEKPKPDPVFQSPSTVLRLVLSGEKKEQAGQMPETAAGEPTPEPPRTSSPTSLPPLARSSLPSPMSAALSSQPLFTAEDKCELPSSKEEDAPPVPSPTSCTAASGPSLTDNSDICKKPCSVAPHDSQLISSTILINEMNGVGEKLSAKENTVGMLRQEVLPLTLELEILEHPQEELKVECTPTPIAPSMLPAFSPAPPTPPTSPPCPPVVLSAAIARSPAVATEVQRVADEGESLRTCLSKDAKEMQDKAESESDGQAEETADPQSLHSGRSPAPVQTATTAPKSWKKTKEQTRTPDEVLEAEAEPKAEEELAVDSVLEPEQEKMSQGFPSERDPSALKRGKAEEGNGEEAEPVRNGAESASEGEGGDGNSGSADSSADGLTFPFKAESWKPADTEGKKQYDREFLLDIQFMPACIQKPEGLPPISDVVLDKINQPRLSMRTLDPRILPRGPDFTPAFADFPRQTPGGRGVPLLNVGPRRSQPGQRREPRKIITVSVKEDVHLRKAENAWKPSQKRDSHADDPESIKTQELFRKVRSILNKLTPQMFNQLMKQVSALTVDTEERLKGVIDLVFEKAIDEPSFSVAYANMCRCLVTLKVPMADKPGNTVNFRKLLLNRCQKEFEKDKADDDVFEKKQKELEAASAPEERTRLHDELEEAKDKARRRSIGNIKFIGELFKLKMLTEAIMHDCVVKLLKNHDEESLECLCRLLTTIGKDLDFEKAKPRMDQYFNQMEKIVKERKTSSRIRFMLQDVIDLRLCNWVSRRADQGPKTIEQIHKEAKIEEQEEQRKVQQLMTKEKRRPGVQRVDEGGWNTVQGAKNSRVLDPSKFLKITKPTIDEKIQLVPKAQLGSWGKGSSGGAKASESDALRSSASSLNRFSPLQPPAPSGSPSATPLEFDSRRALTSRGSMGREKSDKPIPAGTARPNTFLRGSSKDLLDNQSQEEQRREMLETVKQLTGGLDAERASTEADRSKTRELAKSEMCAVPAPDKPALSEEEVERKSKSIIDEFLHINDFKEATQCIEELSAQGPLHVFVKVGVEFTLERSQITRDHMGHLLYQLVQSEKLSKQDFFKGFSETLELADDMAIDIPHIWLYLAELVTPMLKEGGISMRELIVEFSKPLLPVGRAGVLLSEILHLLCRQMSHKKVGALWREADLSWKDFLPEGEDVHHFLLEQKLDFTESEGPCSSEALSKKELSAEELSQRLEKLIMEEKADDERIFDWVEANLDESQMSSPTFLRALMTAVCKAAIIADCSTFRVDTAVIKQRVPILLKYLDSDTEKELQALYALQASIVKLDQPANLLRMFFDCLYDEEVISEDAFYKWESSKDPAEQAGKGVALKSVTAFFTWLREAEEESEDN

Assay [1] has as its target Proline rich coiled-coil 2A (PRRC2A) with a 3×flag tag, from Prrc2a-flag knock-in mice (mouse) (UniProt Q7TSC1). The assay can be described thus: co-IP; as a1 but with RNase A: RNasin and DTT replaced by 10 mg/mL RNase A in the lysis buffer; beads treated with 10 mg/mL RNase A in NT2 buffer for 20 min at room temperature; Western blot. A general note: A western blot detects proteins with antibodies after separation by electrophoresis.

Assay [2] has the same target. As to the kind of experiment: co-IP; P20 Prrc2a-flag testis lysate (150 mM NaCl, 10 mM HEPES pH 7.6, 2 mM EDTA, 0.5% NP-40, 0.5 mM DTT, RNasin); anti-Flag or IgG control on Protein G magnetic beads, overnight 4 °C; 8 washes in NT2 buffer (200 mM NaCl) with RNase inhibitor; Western blot.
Assay [3] shares this target. Described as above. This is another data set of the same source.

These are yes or no findings as the source states them, for the method shown. In cells and extracts the contact can be indirect. Some binding calls cover weakened binding; strength is not graded here.

On to “poly(A) tail binding protein C1 (PABPC1) (from UniProt P29341 1-636)”, for which the binding result in assay [1] and in assay [2] was “binds” each time. In the case of MIWI (from UniProt Q9JMB7 1-862), the binding entry in assay [2] was “binds”. “fragile-X mental retardation autosomal 1 (FXR1) (from UniProt Q61584 1-677)”: the binding result in assay [1] and in assay [2] was “binds” throughout. “eukaryotic translation initiation factor 4 gamma 3 (EIF4G3) (from UniProt Q80XI3 1-1579)”: the binding result in assay [1] and in assay [2] was “binds” in each case.

B1: DCP1A (protein, UniProt Q91YD3 1-602)
chain: MALSCSTVRPRRRGSALRSKMELLSRAEQEMSLAALKQHDPYITSIADLTGQVALYTFCPKANQWEKTDIEGTLFVYRRSASPYHGFTIVNRLNMHNLVEPVNKDLEFQLHEPFLLYRNASLSIYSIWFYDKNDCHRIAKLMADVVEEETRRSQQAARDKQSPSQANGCSDQRPIDILEMLSRAKDEYERNQMGGSNISSPGLQPSTQLSNLGSTETLEETPSGSQDKSAPSGHKHLTVEELFGTSLPKEQPTAMGLESEDTDKLLGDASQKEPSSFLPFPFEQSGGAPQSENLGIHSAAHHTVQPEVSTPVLITPASIAQSGDKHPPSYTLPLSPVLSPTLPAEAPTTQVPHLPRNSTMIQAVKTTPRQKSPLLNQPVPELSHSSLVASQSPFRAPVSLANPAGTALPSVDLLQKLRLTPQHDQIQAQPLGKGTMAPSFSSAAGQLATPESFIEPSSKTAAARAAVSASLSNMVLAPTLQSMQQNQDPEVFSQPKVLPSAIPIAGSPLVPATTTAVSSVLLSPSVFQQTVPRAADLERKASSPSPLTVGTAESQRKPSIILSKSQLQDTLIHLIKNDSSFLSTLHAVYLQVLTKNKDNHNL
For B1, the binding entry in assay [3] was “no binding”.

B2: PATL1 (protein, UniProt Q3TC46 1-770)
chain: MFRYESLEDCPLDEDEDAFQGLGEEDEEIDQFNDDTFGSGAVDDDWQEAHERLAELEEKLPVAADEQTGNGERDEMDLLGDHEENLAERLSKMVIENELEDPAIMRAVQTRPVLQPQPGSLNSSIWDGSEVLRRIRGPLLAQEMPTVSVLEYALPQRPLQGPEDDRDLSERALPRRSTSPIIGSPPVRAVPIGTPPKQMAVPSFNQQILCPKPVHVRPPMPPRYPAPYGERISPNQLCSVPNSSLLGHPFPPNVPPVLSPLQRAQLLGGAQLQPGRMSPSQFARVPGFVGSPLAAMNPKLLQGRVGQMLPPAPSFRAFFSAPPPATPPPQQHPPGPGPHLQNLRPQAPMFRADTTHLHPQHRRLLHQRQLQSRNQHRNLNGTGDRGGHQSSHQDHLRKDPYANLMLQREKDWVSKIQMMQLQSTDPYLDDFYYQNYFEKLEKLSAAEEIQGDGPKKERTKLITPQVAKLEHAYQPVQFEGSLGKLTVSSVNNPRKMIDAVVTSRSEDDETKEKQVRDKRRKTLVIIEKTYSLLLDVEDYERRYLLSLEEERPALMDERKHKICSMYDNLRGKLPGQERPSDDHFVQIMCIRKGKRMVARILPFLSTEQAADILMATARNLPFLIKKDAQDEVLPCLLSPFSLLLYHLPSVTVTSLLQQLMNLPQSASAPAPSNSHLTAVLQNKFGLSLLLILLSRGEDLQSSDPAIESTQNNQWTEVMFMATRELLRIPQAALAKPISIPTNLVSLFSRYVDRQKLNLLETKLQLVQGIR
Take B2: the binding entry in assay [3] is given as “no binding”.

B3: DDX4 (protein, UniProt Q61496 1-702)
chain: MGDEDWEAEILKPHVSSYVPVFEKDKYSSGANGDTFNRTSASSDIGESSKKENTSTTGGFGRGKGFGNRGFLNNKFEEGDSSGFWKESNNDCEDNQTRSRGFSKRGGCQDGNDSEASGPFRRGGRGSFRGCRGGFGLGRPNSESDQDQGTQRGGGLFGSRKPAASDSGNGDTYQSRSGSGRGGYKGLNEEVVTGSGKNSWKSETEGGESSDSQGPKVTYIPPPPPEDEDSIFAHYQTGINFDKYDTILVEVSGHDAPPAILTFEEANLCQTLNNNIAKAGYTKLTPVQKYSIPIVLAGRDLMACAQTGSGKTAAFLLPILAHMMRDGITASRFKELQEPECIIVAPTRELINQIYLEARKFSFGTCVRAVVIYGGTQFGHSVRQIVQGCNILCATPGRLMDIIGKEKIGLKQVKYLVLDEADRMLDMGFGPEMKKLISCPGMPSKEQRQTLLFSATFPEEIQRLAGDFLKSSYLFVAVGQVGGACRDVQQTILQVGQYSKREKLVEILRNIGDERTMVFVETKKKADFIATFLCQEKISTTSIHGDREQREREQALGDFRCGKCPVLVATSVAARGLDIENVQHVINFDLPSTIDEYVHRIGRTGRCGNTGRAISFFDTDSDNHLAQPLVKVLSDAQQDVPAWLEEIAFSTYVPPSFSSSTRGGAVFASVDTRKNYQGKHTLNTAGISSSQAPNPVDDESWD
For the molecule B3, the binding entry in assay [3] is on record as “binds”.
